Hit rate of the full screen: of about 94,000 compounds, about 6,200 (6.6%) were called active. The shares of active, inactive and inconclusive entries below differ from those in the screen. Calls come from the whole dose curve; as a rule, active = well fitted inhibition curve with a large enough effect; inconclusive = small, poorly fitted or top-dose-only effect; inactive = flat fitted curve, though single readings scatter. Potencies of inconclusive entries are doubtful fits and often do not repeat.
experiment: Cytotoxic Profiling in HEK 293 Cell Line of Diverse Libraries Using Quantitative High-Throughput Screening; settings: HEK 293 viability, ATP luminescence (CellTiter-Glo), 48-72 h; series mostly up to 115 µM; note: nearly all actives have a fitted effect of over 60% in size
In short: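 HEK 293 cells seeded at 250 cells/well were exposed to compound for 48 or 72 hr at 37 degree Celsius. Viability taken as ATP content by CellTiter-Glo luminescence.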
Potency is the fitted concentration of half-maximal effect; tags give direction and shape of the fitted curve.

Compound | Potency
CCOc1ccccc1C1NC(=O)N(CC(=O)Nc2cccc(OC)c2)C2=C1C(=O)OC2 (configuration not stated) | inactive
O=C(NCCc1ccccc1F)c1cc(Br)cn2ccnc12 | inconclusive: 50.1 µM [inhibitor, partial curve, poor fit]
NC[C@H]1O[C@H](Cc2cc(-c3ccc(F)cc3)on2)CC[C@@H]1O | inconclusive: 126 µM [inhibitor, single point]
CN(C)c1cccc(C(=O)NC2CCN(c3cc(-c4ccccc4)[nH]n3)CC2)c1 | inconclusive: 79.4 µM [inhibitor, single point]
Cc1ccccc1-c1nc2cc3c(cc2cc1CN1CCC[C@H]1CO)OCO3 | inactive
CCC(=O)N1Cc2ccccc2CC2(CCCN(Cc3ccc(O)cc3)C2)C1 (configuration not stated) | inactive
Cc1noc(C)c1S(=O)(=O)N1C[C@@H](F)C[C@H]1C(=O)N1CCc2ccccc2C1 | inconclusive: 79.4 µM [inhibitor, partial curve, poor fit]
Cc1ccccc1N1CCCN(Cc2nc(-c3ccccn3)no2)CC1 | inconclusive: 89.1 µM [inhibitor, single point]
O=C(NCc1ccccc1)C1CCCN(Cc2cccc(-c3cccs3)c2)C1 (configuration not stated) | inconclusive: 35.5 µM [inhibitor, partial curve, poor fit]
CN1CCN(C(=O)c2nc3sccn3c2-c2cccc(C(F)(F)F)c2)CC1 | inactive
Cc1cccc(N(C)c2ccc3nnc(-c4cc(C(=O)N(C)C)ccn4)n3n2)c1 | inactive
Cc1ccc(C(=O)N2CCCN(c3cc(-c4ccc(Br)cc4)[nH]n3)CC2)cn1 | inconclusive: 50.1 µM [inhibitor, partial curve, poor fit]
c1ccc2c(CN3CCn4c(nnc4C4CCCNC4)C3)cccc2c1 (configuration not stated) | inconclusive: 89.1 µM [inhibitor, single point]
COc1ccccc1Nc1ccnc(N2CCCC(C(=O)NCC(F)F)C2)n1 (configuration not stated) | inconclusive: 79.4 µM [inhibitor, partial curve, poor fit]
O=C1N(c2ccccc2)c2ccccc2C12CCN(Cc1ccsc1)C2 (configuration not stated) | inconclusive: 89.1 µM [inhibitor, partial curve, poor fit]
O=C(c1ccc(Br)o1)N1C[C@@H](CO)[C@H](c2ccncc2)C1 | inconclusive: 100 µM [inhibitor, single point]
CCN1C[C@H]2CN(C)c3ccccc3[C@@H]2N(C(=O)c2ccc(C)cc2)CCC1=O | inconclusive: 31.6 µM [inhibitor, partial curve, poor fit]
O=C(CSc1ccccc1)N1CCc2nc3cc(-c4ccccc4)[nH]n3c(=O)c2C1 | inactive
CC(NC(=O)c1noc(-c2ccc3c(c2)OCO3)n1)c1ccccc1 (configuration not stated) | inconclusive: 50.1 µM [inhibitor, partial curve, poor fit]
c1ccc(-n2cc(CN3CCCC(OCc4cccnc4)C3)nn2)cc1 (configuration not stated) | inactive
COc1ccc2[nH]c(C(=O)N[C@H]3COC[C@H]3Cc3cc(C)no3)c(C)c2c1 | inconclusive: 89.1 µM [inhibitor, single point]

Compound | Potency
Cc1ccc(-c2cc(N3CCCN(C(=O)c4ccccc4F)CC3)n[nH]2)cc1C | active: 28.2 µM
Cc1ccc(N2Cc3c(NCC4CC4)ncnc3N(C)CC2=O)cc1 | inactive
c1csc(CN2CCC(Oc3ccccc3-c3nc(-c4cnccn4)no3)C2)c1 (configuration not stated) | inconclusive: 44.7 µM [inhibitor, partial curve, poor fit]
NCC(=O)N1CCCC2(Cc3ccccc3CN2C(=O)Cc2cccc(Cl)c2)C1 (configuration not stated) | inconclusive: 79.4 µM [inhibitor, partial curve, poor fit]
O=S(=O)(NCC1CCOCC1)c1cccnc1 | inactive
CC(C)(C)c1ccnc(N[C@H]2CO[C@H]3[C@@H]2OC[C@@H]3NC(=O)NCc2ccccc2)n1 | active: 89.1 µM
Cn1nccc1-c1cccc(-c2nc(N3CCOCC3)n(C)n2)c1 | inconclusive: 31.6 µM [inhibitor, partial curve, poor fit]
CCOc1cc(C(=O)NC2CCN(c3cc(-c4ccc(OC)cc4)[nH]n3)C2)cc(OCC)c1OCC (configuration not stated) | active: 39.8 µM
CNC(=O)[C@H]1C[C@H](Oc2ccccc2)CN1S(=O)(=O)c1cccc(OC)c1 | inconclusive: 89.1 µM [inhibitor, single point]
Cc1cc2nc3n(c(=O)c2n1CC(=O)NCc1ccccc1Cl)CCCC3 | inconclusive: 8.91 µM [inhibitor, full curve, poor fit]
COc1ccccc1CN(C)C1CCCc2ccccc21 (configuration not stated) | inconclusive: 39.8 µM [inhibitor, full curve, poor fit]
O=C(NCc1cccs1)C1CCCCN1Cc1ccc(-c2cccs2)cc1 (configuration not stated) | active: 31.6 µM
CN(Cc1ccccn1)C1CCCc2ccccc21 (configuration not stated) | inactive
CN(C)CC1(O)CCC2(CCN(S(=O)(=O)c3ccc(F)cc3)CC2)CC1 | inactive
O=C(Nc1cccc(F)c1)[C@@H]1C[C@@H](c2ccc(F)cc2)N([S+](=O)([O-])c2cccnc2)C1 | inconclusive: 50.1 µM [inhibitor, partial curve, poor fit]
Cc1ccc(CN2CCC[C@H]2c2nc(-c3ccc(OC4CCCCC4)nc3)no2)cc1 | inconclusive: 112 µM [inhibitor, partial curve, poor fit]
COC(=O)c1ccc2nc(C[C@@H]3C[C@@H](C(C)C)[C@H](CNC4CCN(C)CC4)C=C3C)[nH]c2c1 | active: 22.4 µM
COc1ccc(-c2nc(CN3CC[C@H]4CC[C@@H](C3)N4)c(C)o2)c(OC)c1C | inconclusive: 50.1 µM [inhibitor, partial curve, poor fit]
COc1ccc(CN2CCc3nc(N(C)C)[nH]c(=O)c3CC2)cc1OC | inactive
O=C1NCC2(CCN(C(=O)c3ccc4c(c3)OCO4)CC2)Oc2ccccc21 | inconclusive: 89.1 µM [inhibitor, single point]
O=C(CCn1ccn2nc3c(c2c1=O)CCCC3)Nc1cccc(Cl)c1F | inconclusive: 89.1 µM [inhibitor, single point]

From PubChem BioAssay AID1345083 (National Center for Advancing Translational Sciences (NCATS), 2018)
